Publication PMC12528901
No constants are given. Whether binding was seen depends on the method and setting. Binding seen in cells or lysates may run through a third protein. For some assays here: Sequences can lack the tags named with a protein.

Sequences of proteins named here, by UniProt entry; tags and fusion partners are left off.
UniProt Q7Z5G4: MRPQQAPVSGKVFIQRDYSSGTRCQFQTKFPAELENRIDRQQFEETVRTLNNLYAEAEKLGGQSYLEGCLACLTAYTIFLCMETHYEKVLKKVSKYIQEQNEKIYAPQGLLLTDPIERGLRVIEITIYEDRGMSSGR

Columns and labels:
[1] = biological target: T1, HA-tagged mouse Zdhhc3 (mouse) (UniProt Q8R173); assay: co-IP; HA-tagged mouse Zdhhc proteins transfected into 293T ZDHHC5 KO and control cells; lysis in 50 mM Tris-HCl pH 7.4, 150 mM NaCl, 2 mM EDTA, 1% DDM; anti-HA magnetic beads overnight at 4 °C; washes in TBS with 0.5% DDM; blots for endogenous GOLGA7 or ZDHHC9
T1 sequence: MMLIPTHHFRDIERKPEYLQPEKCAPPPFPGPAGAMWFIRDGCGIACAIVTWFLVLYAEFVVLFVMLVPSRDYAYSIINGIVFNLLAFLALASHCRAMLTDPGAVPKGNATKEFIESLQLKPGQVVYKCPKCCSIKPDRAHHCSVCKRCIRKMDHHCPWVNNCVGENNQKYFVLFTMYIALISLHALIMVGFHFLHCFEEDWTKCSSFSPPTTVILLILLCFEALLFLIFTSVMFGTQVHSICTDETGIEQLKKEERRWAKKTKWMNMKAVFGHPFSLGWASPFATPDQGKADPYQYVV

[2] = biological target: T2, Zdhhc4^RNYR (mouse Zdhhc4 with the RNYR motif and flanking residues installed) (mouse) (UniProt Q9D6H5); assay: as above
T2 sequence: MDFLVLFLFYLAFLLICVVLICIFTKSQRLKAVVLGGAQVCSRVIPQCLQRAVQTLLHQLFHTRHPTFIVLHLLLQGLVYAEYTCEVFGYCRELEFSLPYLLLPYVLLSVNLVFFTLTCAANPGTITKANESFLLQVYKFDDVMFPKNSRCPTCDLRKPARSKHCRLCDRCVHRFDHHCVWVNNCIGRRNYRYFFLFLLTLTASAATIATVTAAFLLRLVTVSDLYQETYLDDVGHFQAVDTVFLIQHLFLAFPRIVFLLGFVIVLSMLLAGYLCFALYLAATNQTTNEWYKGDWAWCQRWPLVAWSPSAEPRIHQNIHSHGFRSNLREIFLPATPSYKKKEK

[3] = biological target: T3, HA-tagged mouse Zdhhc15 (mouse) (UniProt Q8BGJ0); assay: as above
T3 sequence: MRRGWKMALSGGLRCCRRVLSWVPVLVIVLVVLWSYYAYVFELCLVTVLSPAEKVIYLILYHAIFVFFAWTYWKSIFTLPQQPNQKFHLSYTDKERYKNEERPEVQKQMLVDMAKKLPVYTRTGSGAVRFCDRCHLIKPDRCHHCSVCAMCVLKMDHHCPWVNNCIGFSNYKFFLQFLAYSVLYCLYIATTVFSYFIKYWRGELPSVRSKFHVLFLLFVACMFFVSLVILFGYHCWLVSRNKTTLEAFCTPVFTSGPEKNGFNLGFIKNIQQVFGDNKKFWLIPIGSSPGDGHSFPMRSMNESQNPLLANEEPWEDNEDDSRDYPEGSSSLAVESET

[4] = biological target: T4, HA-tagged mouse Zdhhc7 (mouse) (UniProt Q91WU6); assay: as above
T4 sequence: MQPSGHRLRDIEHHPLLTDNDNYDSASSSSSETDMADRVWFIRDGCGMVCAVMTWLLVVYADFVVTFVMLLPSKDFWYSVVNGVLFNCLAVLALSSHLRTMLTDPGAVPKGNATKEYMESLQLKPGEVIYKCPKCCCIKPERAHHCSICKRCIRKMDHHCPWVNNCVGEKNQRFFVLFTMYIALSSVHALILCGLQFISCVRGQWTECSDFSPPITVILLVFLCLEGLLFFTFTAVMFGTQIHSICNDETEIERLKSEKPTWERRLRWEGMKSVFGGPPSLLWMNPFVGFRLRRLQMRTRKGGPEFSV

[5] = biological target: T5, HA-tagged mouse Zdhhc1 (mouse) (UniProt Q8R0N9); assay: condition: only in 293T control cells (endogenous ZDHHC5 not disrupted); co-IP; as a1, in unmodified 293T control cells only (endogenous ZDHHC5 present)
T5 sequence: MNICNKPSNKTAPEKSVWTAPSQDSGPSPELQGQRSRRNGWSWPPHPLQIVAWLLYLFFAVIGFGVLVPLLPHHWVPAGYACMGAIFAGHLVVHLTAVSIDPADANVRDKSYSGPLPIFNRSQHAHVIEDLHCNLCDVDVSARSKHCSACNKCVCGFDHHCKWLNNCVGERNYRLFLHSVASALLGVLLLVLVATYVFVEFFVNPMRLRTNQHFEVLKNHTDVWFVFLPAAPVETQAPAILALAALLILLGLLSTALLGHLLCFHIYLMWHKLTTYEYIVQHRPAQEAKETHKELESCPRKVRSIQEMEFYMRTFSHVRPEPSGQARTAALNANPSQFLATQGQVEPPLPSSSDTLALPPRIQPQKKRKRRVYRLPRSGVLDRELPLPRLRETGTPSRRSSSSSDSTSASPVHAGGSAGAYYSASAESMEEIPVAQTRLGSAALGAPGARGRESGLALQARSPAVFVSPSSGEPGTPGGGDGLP

Measured: binding

endogenous human golgin A7 (GOLGA7) (from UniProt Q7Z5G4 1-137)
no binding: [1] | [2] | [3] | [4] | [5]
